Laboratory results published in PubChem BioAssay AID1347073 (National Center for Advancing Translational Sciences (NCATS), 2019).
In all, about 45,000 compounds went through this assay and about 200 (0.44%) were called active. About 7% were inconclusive and are not listed. The call rests on the fitted dose curve; in most records, active means well fitted activation curve with a large enough effect; inconclusive means small, poorly fitted or top-dose-only effect; inactive means no such curve, though single readings can be large or run the other way. The list shows a part of the results.

assay: qHTS of TDP-43 Inhibitors: NCGC Sytravon Library Screen; settings: yeast TDP-43 toxicity rescue, BacTiter-Glo growth, 24 h; series mostly up to 46.1 µM; growth rescue (activation): at the top concentration; further: nearly all actives have a fitted effect of over 55% in size; on growth rescue (activation): 0% is about no effect
Outline: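 TDP-43-expressing yeast, pregrown in raffinose, seeded at OD600 0.02 in galactose medium with compound for 24 hr at 30 deg C. Growth read by BacTiter-Glo luminescence, so rescue of toxicity appears as activation.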
Potency means the concentration at half of the fitted maximal effect.

| SMILES | growth rescue (activation) | Potency |
| --- | --- | --- |
| Cc1ccc2c(c1)N(CC(=O)N1CCCCC1)C(=O)C(C)O2 (stereo not drawn) | inactive: 13.7% |  |
| CC(=O)Nc1ccc(NC(=O)[C@@H]2CCCC[C@@H]2C(=O)O)cc1 | inactive: -1.29% |  |
| CC1CCCN(C(=O)C2CCN(S(=O)(=O)c3cccs3)CC2)C1 (stereo not drawn) | inactive: 10.8% |  |
| Cc1c(/C(O)=C2\C(=O)C(=O)N(CCCN(C)C)C2c2ccccc2)cnn1-c1ccccc1 (stereo not drawn) | inactive: 13.8% |  |
| CCOC(=O)C1(CCOC)CCN(Cc2ccncc2)CC1 | inactive: -5.4% |  |
| COc1ccc(-c2cc(=O)oc3cc(OCC(C)=O)ccc23)cc1 | inactive: 11.7% |  |
| COC(=O)C(CCSC)NC(=O)c1cc2c(n(-c3ccc(C)cc3)c1=O)CCCC2=O (stereo not drawn) | inactive: 12.3% |  |
| N#CCc1c(C#N)c(N)nc(N2CCCC(O)C2)c1C#N (stereo not drawn) | inactive: -0.736% |  |
| COc1ccccc1NC(=O)CSc1nncs1 | inactive: 0.837% |  |
| CN(C(=O)c1cc2c(s1)-c1ccccc1S(=O)(=O)C2)c1ccccc1 | inactive: 5.28% |  |
| CC(C)C(Sc1nc(-c2ccccc2)cc(-c2ccccc2)c1C#N)C(=O)O (stereo not drawn) | inactive: 13.7% |  |
| O=C(Nc1ccc(NC(=O)c2sc3ccccc3c2Cl)cc1)c1ccco1 | inactive: 0.205% |  |
| O=C(Nc1ccccc1)Nc1ccc(Cl)c(S(=O)(=O)N2CCOCC2)c1 | inactive: 5.93% |  |
| COc1ccc(CN(C)C(=O)CCN2C(=O)c3ccccc3C2=O)c(OC)c1OC | inactive: 8.03% |  |
| Cc1c(Cl)cccc1NC(=O)C1CC(=O)N(C2CCCC2)C1 (stereo not drawn) | inactive: -1.12% |  |
| COc1ccc(/C=C2\SC(=O)N(CCNC(=O)CCS(=O)(=O)c3ccc(C)cc3)C2=O)cc1 | inactive: 1.15% |  |
| COc1cc(Cn2c(C(=O)O)cc3sccc32)cc(OC)c1OC | inactive: 8.55% |  |
| CC(C)c1ccc(NC(=O)C2Cc3c(-c4ccccc4Oc4ccccc4)ccnc3O2)cc1 (stereo not drawn) | inactive: 3.1% |  |
| O=C(Nc1ccccc1)c1ccc(=O)[nH]n1 | inactive: -7.49% |  |
| COCCCNC(=S)N(CCO)Cc1cc2cc3c(cc2[nH]c1=O)OCO3 | inactive: -3.6% |  |
| Cc1cccc(/C=N/NC(=O)c2cccc(Cl)c2)n1 | inactive: 14.3% |  |
| CCn1c(=N)n(CC(=O)c2ccc(Cl)c(Cl)c2)c2ccccc21 | inactive: 16.3% |  |
| Cc1cc(NC(=O)CS(=O)(=O)c2cn(Cc3cccc(F)c3)c3ccccc23)no1 | inactive: -1.26% |  |

| SMILES | growth rescue (activation) | Potency |
| --- | --- | --- |
| CCNc1nc(Oc2ccc(OC)cc2)cc(C(F)(F)F)n1 | inactive: 17.2% |  |
| CCSC1=C(C#N)C2(CCCCC2)C2=C(CC(C)(C)CC2=O)N1 | inactive: 10.6% |  |
| CC(=O)Nc1sc(NC(=O)c2ccc(Cl)cc2)nc1-c1cccs1 | inactive: 26.5% |  |
| NNC(=O)CSc1c(-c2ccccc2)c2cc(Cl)ccc2[nH]c1=O | inactive: -7.12% |  |
| CCOC(=O)CCn1c(=O)c2c(nc(Br)n2Cc2ccccc2)n(C)c1=O | inactive: -27% |  |
| CCCC(C(=O)NCCc1ccc(S(N)(=O)=O)cc1)c1ccccc1 (stereo not drawn) | inactive: 16.1% |  |
| COc1ccc(NC(=O)C2(C)CCN2Cc2ccc3ccccc3c2)cc1OC (stereo not drawn) | inactive: -6.76% |  |
| CCOC(=O)C1CCN(C(=O)COc2ccc(C(=O)c3ccccc3)cc2)CC1 | inactive: 5.73% |  |
| Cc1cc(C)nc(SCC(=O)NN)n1 | inactive: 12.8% |  |
| Cc1cc(C)c(C(=O)Nc2ccc(S(=O)(=O)Nc3ccccn3)cc2)c(C)c1 | inactive: 9.31% |  |
| CC(C)c1cccc(C(C)C)c1NC(=O)COC(=O)c1ccc2c(c1)S(=O)(=O)c1ccccc1C2=O | inactive: -21.8% |  |
| Cc1ccc(S(=O)(=O)N2CCC(C(=O)NC3CC(C)(C)NC(C)(C)C3)CC2)cc1 | inactive: -8.71% |  |
| COc1ccc(NC(=O)C2(C)CCN2C(=O)C(C)C)cc1F (stereo not drawn) | inactive: 11.8% |  |
| CC1CN(C(C)C(=O)NNC(=O)c2ccc(F)cc2)CC(C)O1 (stereo not drawn) | inactive: -10% |  |
| COC(=O)c1ccc(OC(C)C(=O)c2ccc(C)cc2)cc1 (stereo not drawn) | inactive: 6.63% |  |
| CCc1cccc(Nc2cnn(C34C[C@@H]5C[C@@H](CC(CC(=O)O)(C5)C3)C4)c(=O)c2Cl)c1 | inactive: 2.39% |  |
| Cc1ccc(CCNC(=O)C23C[C@H]4C[C@@H](C2)CC(n2nnc(C)n2)(C4)C3)cc1 | inactive: 1.1% |  |
| Cc1ccccc1N1CCN(C2CCCN(C(=O)c3ccnn3C)C2)CC1 (stereo not drawn) | inactive: -29.4% |  |
| CC(C)C(C)NC(=O)CN1C(=O)NC2(CCCc3ccccc32)C1=O (stereo not drawn) | inactive: -5.43% |  |
| CCOC(=O)C1(Cc2ccccc2)CCCN(Cc2ccc(OCCO)cc2)C1 (stereo not drawn) | inactive: 5.47% |  |
| O=C(CP(=O)(c1ccccc1)c1ccccc1)N1CCOCC1 | inactive: -15.5% |  |
| C/C(=N/NC(=O)COc1ccc(C(C)(C)C)cc1)c1ccc(N2CCOCC2)cc1 | inactive: 12.7% |  |
| CC(=O)c1c(C)[nH]c(C(=O)CN2CCN(S(=O)(=O)c3ccccc3F)CC2)c1C | inactive: 20.9% |  |

| SMILES | growth rescue (activation) | Potency |
| --- | --- | --- |
| O=C(CCn1c(=O)c2sccc2n(Cc2ccc(F)cc2Cl)c1=O)NCc1ccc2c(c1)OCO2 | inactive: 0.706% |  |
| CCc1ccc(C(C)NC(=O)c2ncn[nH]2)cc1 (stereo not drawn) | inactive: 3.99% |  |
| Cc1c(NC(=O)c2cc3c(s2)CCCC3)c(=O)n(-c2ccccc2)n1C | inactive: 11.6% |  |
| CC1CCN(C(=O)COC(=O)c2cccs2)CC1 | inactive: -6.44% |  |
| NS(=O)(=O)c1ccc(CCNC(=O)CNCCc2ccccc2)cc1 | inactive: -0.384% |  |
| CN(C)C(CNC(=O)c1cccc(OC(F)F)c1)c1ccco1 (stereo not drawn) | inactive: -11.1% |  |
| CCOc1ccc2nc(SCC(=O)NNC(=O)c3ccco3)c(C)cc2c1 | inactive: -0.386% |  |
| COc1ccc(NC(=O)C2(C)Cc3c(-c4cccc(C(N)=O)c4)ccnc3O2)cc1 (stereo not drawn) | inactive: 11.6% |  |
| COc1ccc(Nc2c3c(nc4nncn24)CCC3)cc1OC | inactive: 16.7% |  |
| CCN(CC)S(=O)(=O)c1cc(NC(=O)Cc2ccsc2)ccc1C | inactive: -2.32% |  |
| CCCn1c(SCC(=O)Nc2cc(Cl)ccc2Cl)n[nH]c1=O | inactive: 15.1% |  |
| CCn1ncc(NC(=S)NCCc2ccccc2)c1C(N)=O | inactive: 2.63% |  |
| Cc1ccc(Nc2nc(NCc3cccs3)nc3ccsc23)c(C)c1 | inactive: 7.93% |  |
| O=C(CN(C(=O)CNS(=O)(=O)c1ccc(F)cc1)c1cccc(F)c1)NCC1CCCO1 (stereo not drawn) | inactive: 9.57% |  |
| CC(C)n1c(NCc2c[nH]c3ccccc23)nc2ccccc21 | inactive: 13.2% |  |
| NC(=O)c1ccsc1NC(=O)CSc1nnc(Nc2ccccc2)s1 | inactive: 5.73% |  |
| NC1=NC(=O)C(Cc2ccc(F)cc2)S1 (stereo not drawn) | inactive: 3.75% |  |
| c1ccc2[nH]c(CSc3nc4ccccc4s3)nc2c1 | inactive: -8.27% |  |
| C=CCOC(=O)C1=C(C)NC(=O)NC1/C=C/c1ccccc1 (stereo not drawn) | inactive: 1.3% |  |
| Cc1c(CC(=O)NCCCCCC(=O)O)c(=O)oc2cc3c(cc12)CCC(C)(C)O3 | inactive: 10.8% |  |
| COC(=O)c1cc(OC(=O)CCc2ccc(OC)c(OC)c2)cc(C(=O)OC)c1 | inactive: 0.669% |  |
| COc1ccc(-c2nc(CNS(=O)(=O)c3cccc(F)c3)cs2)cc1 |  | active: 15.8 µM |
